The source gives no read counts; variants with many changes may rest on few reads.
B1: LINE1-mini (parent)
chain: GGCAGAGCUCAACACAGCGUGGCAAAGUGGCUGUGGCUAGACUGCC

Variants of: B1
Assay: self-cleavage, relative activity (ratio to wild type); higher = more cleavage; in vitro, sequencing; the parent is a self-cleaving ribozyme
G2C U9G A16G C18A C42U gave a self-cleavage of 0.01.
In the case of C18G C37A A39U, the self-cleavage is reported as 0.05.
For C23U A25C G40U, the self-cleavage was 0.02.
For C15A A41C C45U, the self-cleavage was 0.02.
With A4U G21C A26U C31G U32A the self-cleavage was 0.07.
A14U C15A A25G showed a self-cleavage of 0.
Work on G1C A11G A12G C37G yielded a self-cleavage of 0.01.
G5A U34G G44U gave a self-cleavage of 0.03.
G2C A25U U32C U43A showed a self-cleavage of 0.09.
Work on G29U C37A G44A yielded a self-cleavage of 0.04.
Variant C3U C8A A11U A12C A14U U34C has a self-cleavage of 0.03.
Variant C13G A16G C23A U32A has a self-cleavage of 0.02.
G22C A24G U28G G29U U38G C42U gave a self-cleavage of 0.01.
For C8U G29C C45U C46A, the self-cleavage was 0.02.
C3G A25U G40A showed a self-cleavage of 0.11.
Variant A11C G22U G30A G44U has a self-cleavage of 0.02.
Work on A4U G7U G33U G36A yielded a self-cleavage of 0.18.
A12G G30C G40C showed a self-cleavage of 0.04.
For A6C A14C G17U G21A, the self-cleavage was 0.01.
Variant C8G U9C G19U C46U has a self-cleavage of 0.02.
For G2U C15U C42A, the self-cleavage was 0.2.
G21U U34G G36A gave a self-cleavage of 0.17.
For C13A G19A G21U A25U U38C, the self-cleavage was 0.05.
In the case of G30U U32C G36A, the self-cleavage is reported as 0.03.
With C8U C10A A11U the self-cleavage was 0.03.
In the case of U9C C18G G29U G30U C42G, the self-cleavage is reported as 0.02.
G1A C15U A25U U28C showed a self-cleavage of 0.59.
With A6U U9G C10U A41G the self-cleavage was 0.01.
For G5A C8G G29U U32A A41G C46A, the self-cleavage was 0.04.
G17A G27U G40U gave a self-cleavage of 0.05.
For C15G G21C U32C, the self-cleavage was 0.02.
Work on G7C C8G G35A G40U A41U yielded a self-cleavage of 0.19.
C8G C18A A24U A41C C46A showed a self-cleavage of 0.11.
In the case of G2C G7C C13U U20A, the self-cleavage is reported as 0.16.
A14G G17A A25U C45U gave a self-cleavage of 0.03.
For A4G C10A U20A C37U, the self-cleavage was 0.02.
In the case of G1U C10U G33U G36U A39U, the self-cleavage is reported as 0.02.
Work on C8G G27U C31A U43A yielded a self-cleavage of 0.05.
C3A A4C G7U gave a self-cleavage of 0.18.
With A4G G5C G17A C18A the self-cleavage was 0.05.
In the case of C23U U32C G40U, the self-cleavage is reported as 0.09.
A12C U20A A25C A41C C46U gave a self-cleavage of 0.01.
A4G C10A C42G gave a self-cleavage of 0.09.
Work on A6G C10G U20A G29A U38C yielded a self-cleavage of 0.01.
With C10A C18A A26C G33C U43C the self-cleavage was 0.
Work on C10G C31U G40A yielded a self-cleavage of 0.06.
In the case of G5U G7A G17A C18A, the self-cleavage is reported as 0.07.
Work on C10A G19A U32G yielded a self-cleavage of 0.06.
Work on C10A C37U A41U yielded a self-cleavage of 0.01.
For C23A G29U C31U C46A, the self-cleavage was 0.16.
For A25U A41C C46A, the self-cleavage was 0.09.
G21A G22C C45A gave a self-cleavage of 1.16.
For C3G C15U A25G U32C G35U G36C A41G, the self-cleavage was 0.06.
For A11C C18G U34C U38C, the self-cleavage was 0.02.
Work on G5U G7C G17U G22U G29A yielded a self-cleavage of 0.06.
For G2C A24G U43C, the self-cleavage was 0.
With C18G G27C G29U the self-cleavage was 1.21.
In the case of U9A A12C G44C, the self-cleavage is reported as 0.01.
C3A G7A C23G C31U gave a self-cleavage of 0.72.
C3G G5C C13U C18U G40A showed a self-cleavage of 0.13.
Work on G5A G19C G30A C37G yielded a self-cleavage of 0.
Work on G1U G2U A14C U34C yielded a self-cleavage of 0.01.
In the case of G2U A6C C15A G36A, the self-cleavage is reported as 0.
Work on G17U C18A G21C A24U A39G U43A yielded a self-cleavage of 0.21.
G2A G19A U20A G21C A24U gave a self-cleavage of 0.33.
Work on C23A G30U C42A yielded a self-cleavage of 0.11.
With G1U G22C A25U G29U G36C the self-cleavage was 0.13.
With G7U C8A A12G C46G the self-cleavage was 0.06.
In the case of A6C A12C C23A A41G, the self-cleavage is reported as 0.02.
In the case of C10U U20C G21U A24U A41G, the self-cleavage is reported as 0.07.
Variant A24G A25U C45G has a self-cleavage of 0.15.
Variant U9A U32G G35A has a self-cleavage of 0.22.
In the case of G2C G7C C18G, the self-cleavage is reported as 0.03.
For A14C A26G G40U C45G, the self-cleavage was 0.03.
With C3U G21C G36U A39U C42U the self-cleavage was 0.03.
G7A C18U A24G U32G A41C C45G showed a self-cleavage of 0.01.
C3U G29C U32A showed a self-cleavage of 0.32.
Variant G2U C8U A24U G33C G35U G36A has a self-cleavage of 0.05.
With A11C A16G G21U A24C the self-cleavage was 0.01.
C8A C15A C18U G22U A24C showed a self-cleavage of 0.09.
For A16U A26U G35C, the self-cleavage was 0.22.
C8A G29U C46U gave a self-cleavage of 0.44.
With C18A G19C U43G the self-cleavage was 0.02.
For G7C U9C C10U, the self-cleavage was 0.02.
Work on U34G C37A A41C yielded a self-cleavage of 0.02.
With G2A A4C A14G A16U G19U U43A the self-cleavage was 0.09.
With G30C G35C G44A the self-cleavage was 0.03.
For C18G A24U U28A U32A G44C, the self-cleavage was 0.01.
G1C G5C G7U gave a self-cleavage of 0.08.
In the case of G2A C15U G30U G44A C46U, the self-cleavage is reported as 0.11.
With C15G A25U C37G C45U the self-cleavage was 0.01.
Variant C3A C8U A11U G27U U28A G30U U38C has a self-cleavage of 0.02.
With G7U C13U A14U G29C the self-cleavage was 0.19.
With C3A A14C U32A the self-cleavage was 0.06.
In the case of G17U G36A C37U G40A, the self-cleavage is reported as 0.06.
With C18A G21U G40U the self-cleavage was 0.02.
With A4G G21C G33A the self-cleavage was 0.07.
C18A G19C A26G G35C A41C showed a self-cleavage of 0.01.
C8U A24C A25U showed a self-cleavage of 0.52.
Work on C18U G21U C37U C45A yielded a self-cleavage of 0.01.
Work on G33A A41U C42A yielded a self-cleavage of 0.04.
G36A A41G C46U showed a self-cleavage of 0.3.
Variant G2A C8A A25C has a self-cleavage of 0.53.
C13A A26U U38A showed a self-cleavage of 0.01.
For G5C G22C A41C, the self-cleavage was 0.29.
G22A U28A C37U G44A showed a self-cleavage of 0.02.
Work on G5A C18G G22A G27C U38C yielded a self-cleavage of 0.17.
With A6C C37G C42U the self-cleavage was 0.11.
For G1U G2C A16G G17U C23G G44A, the self-cleavage was 0.01.
For C15A U28A C31A, the self-cleavage was 0.04.
Variant G5U A11G A14C A16G has a self-cleavage of 0.
In the case of A16C G30C C46G, the self-cleavage is reported as 0.07.
Work on G17U U20A G27A yielded a self-cleavage of 0.37.
G1U U20G G21C G29C C42A C45G gave a self-cleavage of 0.09.
In the case of C15U A16U G22U U34C, the self-cleavage is reported as 0.13.
For C10U U20A G36A, the self-cleavage was 0.02.
For A6U A16U C31A U38G, the self-cleavage was 0.37.
Variant A6C G22C G44U C45G C46A has a self-cleavage of 0.
In the case of C10U G21U U28A G29C C37A, the self-cleavage is reported as 0.01.
With A11U A24C G35C C45U the self-cleavage was 0.01.
In the case of G1U C3A C13G C37U G44C, the self-cleavage is reported as 0.17.
G1U U20C C37U gave a self-cleavage of 0.
Work on G21U G27C C42U yielded a self-cleavage of 0.29.
In the case of C3G A4U G17A G33A U38G A41C C42A, the self-cleavage is reported as 0.02.
With C15G G17A G21U C31A U34A the self-cleavage was 0.04.
G21U G22C U34A G36A U38C showed a self-cleavage of 0.1.
Work on C10A G17A A26C G30U G33U yielded a self-cleavage of 0.01.
With C10A G17C C18G U34A C37U the self-cleavage was 0.01.
Variant G5A A12C C18A G19U C31A has a self-cleavage of 0.01.
Work on C3U G19A G22U yielded a self-cleavage of 0.21.
A14G C37G C45A showed a self-cleavage of 0.
Variant A11G A16U C31G C46U has a self-cleavage of 0.01.
Variant A12C A24C C37U has a self-cleavage of 0.
For U9G A25C C46U, the self-cleavage was 0.07.
With G29U G30U A39U the self-cleavage was 2.54.
In the case of C18U U34C G36C, the self-cleavage is reported as 0.04.
For G2A G17U G33A A41G, the self-cleavage was 0.11.
Work on C23A A25C C37G G44U yielded a self-cleavage of 0.08.
Work on A12U U34G G44U yielded a self-cleavage of 0.04.
U20C G21C C23G A25C gave a self-cleavage of 0.23.
Work on C10U G27C C31A C42G yielded a self-cleavage of 0.02.
G2C U9A A26C showed a self-cleavage of 0.02.
Variant A26C U28C U38A has a self-cleavage of 0.03.
Work on G2U U20C A39C yielded a self-cleavage of 0.02.
G2C C8A U9A C18A C31G G35C A39C C42G gave a self-cleavage of 0.01.
G35U G36C G44C showed a self-cleavage of 0.02.
With C23A G33C A41U the self-cleavage was 0.06.
In the case of A12U G30U U32A G36A, the self-cleavage is reported as 0.03.
In the case of C8U G19U G29C G36U C37G G40C, the self-cleavage is reported as 0.01.
In the case of A16U A25U G33A U43C, the self-cleavage is reported as 0.03.
C10A A25G G29U A41C showed a self-cleavage of 0.01.
A12U C15A C42U showed a self-cleavage of 0.04.
Variant G2C G19C A41G G44C has a self-cleavage of 0.05.
For G2C U9C G22U C45G, the self-cleavage was 0.07.
Variant G1U A26C A39C G44C has a self-cleavage of 0.
In the case of A12C G17C G19U, the self-cleavage is reported as 0.09.
U9G G44C C45A gave a self-cleavage of 0.03.
Work on G17U G19C G40U U43A yielded a self-cleavage of 0.05.
With C8A G21U C23G the self-cleavage was 0.09.
For U9C C23A G36C, the self-cleavage was 0.02.
Work on C10A A14C C18G C31G yielded a self-cleavage of 0.
A4U C23U A26C C42A showed a self-cleavage of 0.02.
C3G G17A G21C C31U gave a self-cleavage of 0.06.
Work on C3G A4C C13A C15G G22C C23U yielded a self-cleavage of 0.04.
For A12U C15A G30A, the self-cleavage was 0.03.
In the case of G1C C13U G17U, the self-cleavage is reported as 0.02.
With A12G A14G G17C the self-cleavage was 0.01.

— the RNAGym collection of RNA variant scans (doi:10.7554/elife.90254)
